# Data taken from article PMC4336329 (PLoS ONE, 2015).
# About 2,200 (0.71%) of roughly 310,000 compounds showed an effect of 50% or more. The effect is printed as a negative number. Some of the results follow.
# Molecular target: human ether-à-go-go-related gene (hERG) potassium channel (human, UniProt Q12809)
# Test: primary screen, population patch clamp on CHO cells stably expressing hERG
# human ether-à-go-go-related gene (hERG) potassium channel, sequence (Q12809 whole entry, looked up): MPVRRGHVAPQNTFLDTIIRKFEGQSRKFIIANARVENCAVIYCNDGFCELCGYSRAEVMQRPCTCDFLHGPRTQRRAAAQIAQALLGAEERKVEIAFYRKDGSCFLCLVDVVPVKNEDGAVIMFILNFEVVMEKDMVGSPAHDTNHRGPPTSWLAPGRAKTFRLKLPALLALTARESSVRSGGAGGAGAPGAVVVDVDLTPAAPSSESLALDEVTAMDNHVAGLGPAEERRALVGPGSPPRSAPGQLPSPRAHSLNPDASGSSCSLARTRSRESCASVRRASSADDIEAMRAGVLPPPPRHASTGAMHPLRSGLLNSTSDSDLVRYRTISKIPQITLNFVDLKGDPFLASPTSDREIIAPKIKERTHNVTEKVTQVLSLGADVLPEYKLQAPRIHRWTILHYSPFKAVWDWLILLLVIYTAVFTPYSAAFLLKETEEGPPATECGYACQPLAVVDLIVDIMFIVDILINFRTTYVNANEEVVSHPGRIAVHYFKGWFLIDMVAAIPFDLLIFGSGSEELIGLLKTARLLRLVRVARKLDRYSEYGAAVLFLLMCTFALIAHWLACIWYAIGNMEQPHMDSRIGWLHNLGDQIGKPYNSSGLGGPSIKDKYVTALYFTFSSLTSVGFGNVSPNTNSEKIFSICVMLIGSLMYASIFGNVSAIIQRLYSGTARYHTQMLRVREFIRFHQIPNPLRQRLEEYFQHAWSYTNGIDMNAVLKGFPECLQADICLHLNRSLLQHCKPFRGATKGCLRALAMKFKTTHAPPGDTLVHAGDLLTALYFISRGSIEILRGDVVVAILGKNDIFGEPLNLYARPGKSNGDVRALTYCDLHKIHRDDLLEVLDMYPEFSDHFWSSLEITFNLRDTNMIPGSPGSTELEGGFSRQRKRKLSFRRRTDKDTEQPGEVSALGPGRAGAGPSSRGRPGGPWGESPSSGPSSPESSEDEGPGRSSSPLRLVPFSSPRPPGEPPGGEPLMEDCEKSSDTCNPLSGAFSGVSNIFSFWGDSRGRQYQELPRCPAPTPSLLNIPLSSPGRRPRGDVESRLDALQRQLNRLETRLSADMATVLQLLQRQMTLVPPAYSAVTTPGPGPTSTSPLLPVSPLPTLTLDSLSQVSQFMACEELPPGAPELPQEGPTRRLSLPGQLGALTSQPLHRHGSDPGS
row,Structure (SMILES),"hERG current change (%, negative = inhibition) at 1uM"
1,CCOC(=O)C1CC(C)=C(C)CC1C(=O)O (stereo not drawn),12%
2,COC(=O)c1ccc(-n2nnnc2SCC(=O)N2CCCCC2)cc1,10.4%
3,CCS(=O)(=O)N1CCN(S(=O)(=O)c2ccc3c(c2)OCCO3)CC1,13%
4,C[n+]1c(/C=C/c2ccc(O)cc2)ccc2ccccc21.[I-],-15.9%
5,COc1cc(C2OCC3C(c4ccc(OC5OC(CO)C(O)C(O)C5O)c(OC)c4)OCC23)ccc1O (stereo not drawn),-7.37%
6,CCC(C)NC(=O)CSc1nnc(-c2cc(-c3cccs3)nc3ccccc23)o1 (stereo not drawn),2.87%
7,Cc1ccc(-c2nc(CN3CCCCC3CCN3CCCC3=O)c(C)o2)o1 (stereo not drawn),-4.78%
8,CCCNC(=O)c1ccc(-c2nn(C)c(=O)c3ccccc23)cc1,14.3%
9,CC1CCC2C(=O)N(c3ccccc3OC(=O)c3ccccc3)C(=O)C2C1 (stereo not drawn),16.9%
10,COc1ccc(C(=O)c2cn(-c3cccc(Br)c3)nc2C(C)=O)cc1,11.9%
11,Cc1ccc(C(=O)CC(=O)c2cc(Cl)ccc2O)cc1,3.8%
12,CN(C)CCNC(=O)c1nn(C)c2c1CCc1ccccc1-2,5.36%
13,O=C(O)c1cccnc1SCC(=O)N1CCCCCC1,-0.241%
14,CC1CN(CC(=O)Nc2ccc([N+](=O)[O-])cc2Br)CC(C)O1 (stereo not drawn),4.18%
15,O=C(c1ccc(Br)cc1)N1CCN(c2ncccn2)CC1,11.7%
16,CC1CC(C)CN(S(=O)(=O)c2cccc(C(=O)N3CCN(c4ccc(F)cc4)CC3)c2)C1 (stereo not drawn),-4.07%
17,CC1CCC(NC(=O)C2CC(=O)N(c3ccc(Cl)cc3)C2)CC1 (stereo not drawn),13.7%
18,Cc1cc(C(=O)CNCc2ccco2)c(C)n1-c1ccc(F)cc1,10.6%
19,Cc1ccc(C(=O)N(CCc2ccccc2)Cc2ccccc2)cc1S(=O)(=O)N1CCCCC1,1.1%

row,Structure (SMILES),"hERG current change (%, negative = inhibition) at 1uM"
1,O=C(NCc1ccc2c(c1)OCO2)c1ccc(N2CCCC2=O)cc1,14.7%
2,CN(C)/C=C/c1c(C#N)c(=O)ncn1Cc1ccccc1,19.5%
3,COc1cc(OC)c(NC(=O)c2ccoc2C)cc1Cl,14.3%
4,CC(C)c1ccc(S(=O)(=O)c2cn(Cc3ccc(F)cc3)c3cc4c(cc3c2=O)OCO4)cc1,3.38%
5,Cc1cc(NC(=O)CN2C(=O)c3ccccc3C2=O)no1,13.8%
6,CCCCC(=O)OCc1cn(-c2ccc(Cl)cc2)nn1,6.2%
7,CCn1nc(C)c(/C=N/NC(=O)Cn2nccc2C)c1C,4.92%
8,CCn1c(SCC(=O)Nc2cc(C)on2)nnc1-c1ccc(S(=O)(=O)N2CCN(C)CC2)cc1,4.42%
9,O=C(Nc1ccccc1)c1cc2c(=O)c3ccccc3oc2nc1C(F)(F)F,7.43%
10,CC(=O)Nc1ccc(S(=O)(=O)NCC2CCC(C(=O)NCCCN(C)Cc3ccccc3)CC2)cc1 (stereo not drawn),13.9%
11,O=C(NC1CC(=O)N(c2ccc(F)cc2)C1)N1CCN(C(=O)c2ccco2)CC1 (stereo not drawn),-15.1%
12,COc1ccc(-c2cc(C(=O)N3CCN(c4ccccc4F)CC3)c3ccccc3n2)c(OC)c1,4.75%
13,O=C(Nc1ccc(Cl)cc1)Nc1nnc(SCc2ccccc2)s1,11.2%
14,O=[N+]([O-])c1cc([N+](=O)[O-])c(Oc2cc(Cl)cc(Cl)c2)cc1NN1CCCCC1,11.6%
15,CCN(CC)C(=O)NC1CC2CCCC(C1)N2Cc1ccccc1 (stereo not drawn),2.54%
16,Cc1ccc(-c2cc(C(=O)Nc3cc(C)ccc3C)[nH]n2)c(O)c1,11.9%
17,CCCN(CC(=O)Nc1ccc(OC)c(OC)c1)CC(=O)Nc1ccc(F)c(F)c1F,4.25%
18,CC(C)(CO)NC(=O)Nc1ccc(Cl)c(Cl)c1,17.5%
19,Cc1c[n+]([O-])cc(C)c1Oc1ccccc1,10.2%

row,Structure (SMILES),"hERG current change (%, negative = inhibition) at 1uM"
1,COC(=O)c1nnn(CC(=O)Nc2ccc(C)c(F)c2)c1C(=O)OC,17.1%
2,Cc1ccc(N2CCC(N3CCN(C4CCCCC4)C(CCO)C3)CC2)cc1 (stereo not drawn),-10.5%
3,COc1ccc(C(=O)NC2CCN(C(=O)NCc3ccccc3)CC2)cc1,8.79%
4,CCN(CC)CC.COc1ccccc1-n1c(=S)[nH]c2c(sc(=S)n2-c2ccccc2C)c1=O,6.42%
5,CN(Cc1ccccc1)C(=S)Nc1cccnc1,14.3%
6,Cc1ccc(O)c(N/C=C/C(=O)c2ccc(F)cc2)c1,10%
7,CC(C)(C)C1=C(C#N)C(c2ccncc2)C(C#N)=C(N)O1 (stereo not drawn),11.4%
8,CCCCSc1nnc2nc(C)cc(C)n12,-3.49%
9,O=C(OC1CCOC1=O)c1ccc(N2CCCC2)c([N+](=O)[O-])c1 (stereo not drawn),10%
10,CCn1nc(C)c(Br)c1C(=O)Sc1ccccc1Cl,11.6%
11,COc1ccccc1/C=C(/CC(=O)NCc1ccccc1)c1nc2ccccc2s1,10.9%
12,CCN(CC)c1ccc(NC(=O)c2cc(OC)cc(OC)c2)c(C)c1,-2.35%
13,COC(=O)c1ccc(-n2cnc3ccccc32)nc1,19%
14,CC(C)[C@H](NC(=O)N1CC(=O)Nc2ccccc21)C(=O)N1CCC[C@@H]1C(=O)O,9.59%
15,NC(=O)CCn1c(=O)oc2ccccc21,10.1%
16,COc1ccc(S(=O)(=O)N2CCOCC2)cc1C(=O)N1CCCCC1,3.84%
17,Cc1cc(NC(=O)COC(=O)C2CC2)ccc1Br,6.09%
18,CC(=O)c1ccc(N(C(=O)CNC(=O)c2ccco2)C(C(=O)NC2CCCC2)c2ccco2)cc1 (stereo not drawn),20.6%
19,CCOC(=O)/C(=C/Nc1ccccc1)[N+](=O)[O-],14.1%
